Common to all, as to assay: glycan array binding signal (z-score within array); higher = stronger binding
Holding throughout (settings): glycan notation: IUPAC condensed, linker removed

The target of assay [1] is Neu5Ac(a2-3)Gal(b1-3)[GlcNAc(b1-6)]GalNAc. An outline of the steps: (§1)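 The binding signal is a Z-score computed within each array. Data were drawn from 3228 arrays in the Consortium for Functional Glycomics database, restricted to those with a known protein sequence. Scores were averaged over arrays of the same protein sequence at different concentrations or buffers, and over linkers, and negative values can be taken as non-binding.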

For assay [2], the target named is Neu5Ac(a2-3)Gal(b1-3)[Neu5Ac(a2-6)]GalNAc. An outline of the steps: as §1
The target in assay [3] is Neu5Ac(a2-3)Gal(b1-3)[Neu5Ac(a2-6)]GlcNAc(b1-3)[Fuc(a1-3)[Gal(b1-4)]GlcNAc(b1-6)]Gal(b1-4)Glc. An outline of the steps:
as §1

Assay [4] deals with Neu5Ac(a2-3)Gal(b1-3)]Neu5Ac(a2-3)Gal(b1-4)]GlcNAc. An outline of the steps:
as §1

A further assay deals with Neu5Ac(a2-3)Gal(b1-4)Glc. An outline of the steps: as §1
Assay [5] addresses Neu5Ac(a2-3)Gal(b1-4)GlcNAc. An outline of the steps: as §1
Assay [6] concerns the target Neu5Ac(a2-3)Gal(b1-4)GlcNAc(b1-2)Man. An outline of the steps: as §1
In assay [7] the target is Neu5Ac(a2-3)Gal(b1-4)GlcNAc(b1-2)Man(a1-3)[GlcNAc(b1-4)][Neu5Ac(a2-3)Gal(b1-4)GlcNAc(b1-2)Man(a1-6)]Man(b1-4)GlcNAc(b1-4)GlcNAc. An outline of the steps:
as §1

The target in assay [8] is Neu5Ac(a2-3)Gal(b1-4)GlcNAc(b1-2)Man(a1-3)[Neu5Ac(a2-3)Gal(b1-4)GlcNAc(b1-2)Man(a1-6)]Man(b1-4)GlcNAc(b1-4)GlcNAc. An outline of the steps: as §1
In assay [9] the target is Neu5Ac(a2-3)Gal(b1-4)GlcNAc(b1-2)Man(a1-3)[Neu5Ac(a2-3)Gal(b1-4)GlcNAc(b1-2)Man(a1-6)]Man(b1-4)GlcNAc(b1-4)[Fuc(a1-6)]GlcNAc. An outline of the steps:
as §1

In assay [10] the target is Neu5Ac(a2-3)Gal(b1-4)GlcNAc(b1-2)Man(a1-3)[Neu5Ac(a2-6)Gal(b1-4)GlcNAc(b1-2)Man(a1-6)]Man(b1-4)GlcNAc(b1-4)GlcNAc. An outline of the steps: as §1
The target of assay [11] is Neu5Ac(a2-3)Gal(b1-4)GlcNAc(b1-2)[Neu5Ac(a2-3)Gal(b1-4)GlcNAc(b1-4)]Man(a1-3)[GlcNAc(b1-4)][Neu5Ac(a2-3)Gal(b1-4)GlcNAc(b1-2)[Neu5Ac(a2-3)Gal(b1-4)GlcNAc(b1-6)]Man(a1-6)]Man(b1-4)GlcNAc(b1-4)GlcNAc. An outline of the steps: as §1
Assay [12] has as its target Neu5Ac(a2-3)Gal(b1-4)GlcNAc(b1-2)[Neu5Ac(a2-3)Gal(b1-4)GlcNAc(b1-4)]Man(a1-3)[GlcNAc(b1-4)][Neu5Ac(a2-3)Gal(b1-4)GlcNAc(b1-4)Man(a1-6)]Man(b1-4)GlcNAc(b1-4)GlcNAc. An outline of the steps:
as §1

Assay [13] deals with Neu5Ac(a2-3)Gal(b1-4)GlcNAc(b1-2)[Neu5Ac(a2-3)Gal(b1-4)GlcNAc(b1-6)]Man(a1-6)[Neu5Ac(a2-3)Gal(b1-4)GlcNAc(b1-2)Man(a1-3)][GlcNAc(b1-4)]Man(b1-4)GlcNAc(b1-4)GlcNAc. An outline of the steps:
as §1

The target of assay [14] is Neu5Ac(a2-3)Gal(b1-4)GlcNAc(b1-3)Gal. An outline of the steps:
as §1

In assay [15] the target is Neu5Ac(a2-3)Gal(b1-4)GlcNAc(b1-3)Gal(b1-3)GlcNAc. An outline of the steps: as §1
In assay [16] the target is Neu5Ac(a2-3)Gal(b1-4)GlcNAc(b1-3)Gal(b1-4)GlcNAc. An outline of the steps: as §1
In assay [17] the target is Neu5Ac(a2-3)Gal(b1-4)GlcNAc(b1-3)Gal(b1-4)GlcNAc(b1-2)Man(a1-3)[Neu5Ac(a2-3)Gal(b1-4)GlcNAc(b1-3)Gal(b1-4)GlcNAc(b1-2)Man(a1-6)]Man(b1-4)GlcNAc(b1-4)GlcNAc. An outline of the steps:
as §1

The target in assay [18] is Neu5Ac(a2-3)Gal(b1-4)GlcNAc(b1-3)Gal(b1-4)GlcNAc(b1-3)Gal(b1-4)GlcNAc. An outline of the steps:
as §1

Assay [19] deals with Neu5Ac(a2-3)Gal(b1-4)GlcNAc(b1-3)Gal(b1-4)GlcNAc(b1-3)Gal(b1-4)GlcNAc(b1-2)Man(a1-3)[Neu5Ac(a2-3)Gal(b1-4)GlcNAc(b1-3)Gal(b1-4)GlcNAc(b1-3)Gal(b1-4)GlcNAc(b1-2)Man(a1-6)]GalNAc. An outline of the steps: as §1
The target of assay [20] is Neu5Ac(a2-3)Gal(b1-4)GlcNAc(b1-3)Gal(b1-4)GlcNAc(b1-3)GalNAc. An outline of the steps:
as §1

In assay [21] the target is Neu5Ac(a2-3)Gal(b1-4)GlcNAc(b1-3)Gal(b1-4)GlcNAc(b1-3)[Neu5Ac(a2-3)Gal(b1-4)GlcNAc(b1-3)Gal(b1-4)GlcNAc(b1-6)]GalNAc. An outline of the steps:
as §1

Assay [22] has as its target Neu5Ac(a2-3)Gal(b1-4)GlcNAc(b1-3)Gal(b1-4)GlcNAc(b1-6)[Gal(b1-3)]GalNAc. An outline of the steps:
as §1

One molecule from the supplement of paper PMC8728848 can be followed below.

This is one part of the list.

B1: Banana lectin (Musa acuminata) (protein)
chain: MNGAIKVGAWGGNGGSAFDMGPAYRIISVKIFSGDVVDGVDVTFTYYGKTETRHYGGSGGTPHEIVLQEGEYLVGMAGEVANYHGAVVLGKLGFSTNKKAYGPFGNTGGTPFSLPIAAGKISGFFGRGGKFLDAIGVYLEPLEHHHHHH
Regarding B1, the “glycan array binding signal (z-score)” value in [1] is -0.214; in assay [2], -0.235; in assay [3], -0.188; in [4], -0.223; with Neu5Ac(a2-3)Gal(b1-4)Glc, -0.193; in assay [5] it was -0.197. Moreover, the “glycan array binding signal (z-score)” value in [6] is -0.182; in assay [7], -0.197; in [8] it was -0.144; in [9], -0.603; in assay [10], -0.163; in [11] it was -0.216. Also, the “glycan array binding signal (z-score)” value was -0.225 in [12]; -0.234 in [13]; -0.215 in assay [14]; -0.247 in [15]; -0.228 in assay [16]; -0.167 in [17]. The “glycan array binding signal (z-score)” value is -0.198 in assay [18]; -0.09 in [19]; -0.217 in assay [20]; -0.196 in assay [21]; -0.208 in assay [22].
